According to PubChem BioAssay AID1347055 (National Center for Advancing Translational Sciences (NCATS), 2019):
“And” between values parts separate entries of the source, which are not always exact repeats. Identical values can stand only once. The whole screen tested about 54,000 compounds, of which about 120 (0.22%) were called active. Inconclusive results, whose numbers are uncertain, are shown with a selection of clear calls. Calls come from the whole dose curve; as a rule, active = well fitted inhibition curve with a large enough effect; inconclusive = small, poorly fitted or top-dose-only effect, or effect the other way; inactive = flat fitted curve, though single readings scatter. No potency is given beside an inconclusive call; the fits are too rough. The source holds several records for some structures; these can differ, active in one and inactive in another.

These compounds were tested against Fumarate hydratase, mitochondrial (Homo sapiens) (UniProt P07954) (assay: Identification of activators of human fumarate hydratase by quantitative high-throughput screening). Conditions: FH coupled MDH/diaphorase resazurin fluorescence, 15 min; activity change, negative = inhibition: at 79.9 µM (top of the series).
Chain of UniProt P07954 (P07954 whole entry, looked up): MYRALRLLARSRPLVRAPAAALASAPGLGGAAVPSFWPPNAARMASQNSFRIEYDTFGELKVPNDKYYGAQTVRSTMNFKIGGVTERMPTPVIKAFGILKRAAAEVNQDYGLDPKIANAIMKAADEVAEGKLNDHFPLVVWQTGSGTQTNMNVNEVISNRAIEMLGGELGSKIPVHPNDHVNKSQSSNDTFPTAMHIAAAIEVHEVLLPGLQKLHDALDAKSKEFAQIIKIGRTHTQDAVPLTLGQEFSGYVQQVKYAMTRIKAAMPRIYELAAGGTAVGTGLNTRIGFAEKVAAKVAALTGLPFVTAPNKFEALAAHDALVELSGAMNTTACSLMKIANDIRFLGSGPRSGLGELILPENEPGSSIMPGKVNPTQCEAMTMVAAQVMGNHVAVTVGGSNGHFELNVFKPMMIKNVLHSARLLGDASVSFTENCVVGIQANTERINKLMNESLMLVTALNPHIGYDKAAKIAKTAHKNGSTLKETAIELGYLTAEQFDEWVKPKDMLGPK
% is set by controls: 0 for no effect and ±100 for the full control effect; potency is the fitted concentration of half-maximal effect; tags give direction and shape of the fitted curve.
Note: the screen sought activators but most active calls are inhibition curves; nearly all actives have a fitted effect of over 45% in size.

| SMILES | Potency | activity change, negative = inhibition |
| --- | --- | --- |
| CCOC(=O)C1CCN(c2ncnc3c2c(-c2ccccc2)cn3-c2cccc(C)c2)CC1 | inconclusive [inhibitor, partial curve, poor fit] | – |
| COc1cc(-n2cnc3cc(-c4ccc(Cl)cc4)sc3c2=O)ccc1OCCN1CCCC1 | – | inactive: 19.5% |
| CCc1ccc(NC(=O)c2cc(C(C)=O)n3ccccc23)cc1 | inconclusive [inhibitor, single point] | – |
| COc1ccc(-c2cc(C(=O)NCc3cc(OC)c(OC)c(OC)c3)[nH]n2)cc1 | inconclusive [inhibitor, partial curve, poor fit] | – |
| CCOc1ccc(-c2nc(CSCC(=O)N3CCN(c4cccc(C(F)(F)F)c4)CC3)c(C)o2)cc1 | inconclusive [inhibitor, partial curve] | – |
| COc1ccc(NC(=O)CSc2cn(CC(=O)N3CCOCC3)c3ccccc23)cc1OC | inconclusive [inhibitor, partial curve, poor fit] | – |
| COc1ccccc1CNS(=O)(=O)c1cc(C(=O)Nc2cccc(C(F)(F)F)c2)ccc1F | inconclusive [inhibitor, partial curve] | – |
| Fc1ccc(-n2ncc3c(NCCCN4CCOCC4)ncnc32)cc1 | – | inactive: -2.14% |
| COC(=O)c1ccc(NC(=O)CSc2ccc(-c3cccs3)nn2)cc1 | inconclusive [inhibitor, partial curve] | – |
| CCN(CC)CCNC(=O)C1CCCN(c2nnc(C)c3c(C)n(-c4ccc(Cl)cc4)nc23)C1 (centres undefined) | inconclusive [inhibitor, partial curve] | – |
| O=C1NC(=O)/C(=C/c2ccc3nccc(-c4ccncc4)c3c2)S1 | active: 31.6 µM | – |
| O=C1NC(=O)C(c2ccccc2[N+](=O)[O-])=C1Nc1ccc(O)c(Cl)c1 | inactive and active: 25.1 µM | – |
| N#C/C(=C\c1ccc(O)c(O)c1)C(=O)Nc1ccccc1 | active: 14.1 µM | – |
| O=C(NCc1ccccc1)C(=O)NCC(c1ccco1)S(=O)(=O)c1ccccc1 (centres undefined) | inconclusive [activator, full curve] | – |
| CCCCN1C(=O)C(O)(c2c(C)[nH]c3ccccc23)c2cc(Br)ccc21 (centres undefined) | inconclusive [inhibitor, single point] | – |
| Cc1ccc(-c2nnc(SCC(=O)NCCC(C)C)nc2-c2ccc(C)cc2)cc1 | inconclusive [inhibitor, partial curve, poor fit] | – |
| CCOC(=O)c1cnc2ccc(OCC)cc2c1N1CCN(c2cccc(Cl)c2)CC1 | inconclusive [inhibitor, partial curve, poor fit] | – |
| CN1CCN(C(=O)c2cnn(-c3cccc(F)c3)c2C2CCN(C(=O)OC(C)(C)C)CC2)CC1 | – | inactive: 3.13% |
| CCOc1ccc(CCNC(=O)c2ccc3[nH]c(C)c(C)c3c2)cc1 | inconclusive [inhibitor, partial curve] | – |
| COc1ccc(-c2csc3ncnc(Nc4ccc(OC)c(OC)c4)c23)cc1 | inconclusive [inhibitor, single point] | – |

| SMILES | Potency | activity change, negative = inhibition |
| --- | --- | --- |
| COc1cccc(C(=O)c2sc(Nc3ccc(C)cc3C)c(S(=O)(=O)c3ccccc3)c2N)c1 | inconclusive [inhibitor, partial curve, poor fit] | – |
| CCOc1ccc(OCC)c(NC(=O)CN(c2ccc(C)cc2)S(=O)(=O)c2c(C)n[nH]c2C)c1 | inconclusive [inhibitor, partial curve] | – |
| Oc1ccc(C2CNCCc3c2cc(O)c(O)c3Cl)cc1 (centres undefined) | inconclusive [inhibitor, single point] | – |
| Cc1c(C(=O)OC2CCCCCC2)[nH]c2c1C(=O)CC(c1ccccc1Cl)C2 (centres undefined) | – | inactive: -19.6% |
| CCN(CC)S(=O)(=O)c1ccc(C(=O)NC2CC(=O)N(c3ccc4c(c3)OCCO4)C2)cc1 (centres undefined) | – | inactive: -7.31% |
| COc1ccc(Nc2nc(N)nc(CSc3nc4ccccc4s3)n2)cc1 | inconclusive [inhibitor, single point] | – |
| Cc1nn(Cc2ccccc2)c(C)c1NC(=O)c1cc(C(C)C)on1 | – | inactive: -30.3% |
| CN(C)CCNC(=O)Cc1ccc(NC(=O)N2CCCCc3ccccc32)cc1 | inconclusive [inhibitor, partial curve, poor fit] | – |
| COc1ccc(S(=O)(=O)N2Cc3ccccc3CC2C(=O)Nc2cccc(C)c2)cc1OC (centres undefined) | inconclusive [inhibitor, partial curve, poor fit] | – |
| COc1ccccc1CNc1nc(-c2ccco2)nn1C(=O)c1ccccc1[N+](=O)[O-] | inconclusive [inhibitor, partial curve, poor fit] | – |
| Cc1cc(OCCn2c(C3CC(=O)N(Cc4ccc(F)cc4)C3)nc3ccccc32)ccc1Cl (centres undefined) | inconclusive [inhibitor, partial curve] | – |
| Cc1ccc(C)c(N2CCN(CCCNC(=O)Cn3c(-c4cccs4)cc4ccccc43)CC2)c1 | inconclusive [inhibitor, partial curve, poor fit] | – |
| Cc1ccc(S(=O)(=O)N(CCc2ccccc2)CC(=O)Nc2ccccc2C)cc1 | inconclusive [inhibitor, partial curve, poor fit] | – |
| COc1ccc(CCNC(=O)c2ccc3c(c2)N(Cc2ccccc2)CCS3)cc1OC | inconclusive [inhibitor, partial curve, poor fit] | – |
| Cc1cc(C)cc(NS(=O)(=O)c2ccc3[nH]cc(C(=O)NCCc4ccccc4)c(=O)c3c2)c1 | – | inactive: -6.87% |
| Cc1ccn2c(Nc3ccc4c(c3)OCCO4)c(-c3ccccc3O)nc2c1 | inconclusive [inhibitor, single point] | – |
| Cn1cc(-c2cnn3c(N)c(Br)c([C@H]4CCCNC4)nc23)cn1 | – | inactive: -12% [at 53.3 µM] |
| CNCCC(c1cccs1)c1ccc(O)c2ccccc12 (centres undefined) | – | inactive: 0.0443% |
| CC(=O)c1c(C)oc2c1cc(NS(=O)(=O)c1ccc(C(C)(C)C)cc1)c1ccccc12 | inconclusive [inhibitor, partial curve] | – |
